Source: PubChem BioAssay AID1508642 (National Center for Advancing Translational Sciences (NCATS), 2021)
The campaign covered roughly 43,000 compounds. About 200 (0.47%) were called active. About 12% were inconclusive and are not listed. The call rests on the fitted dose curve; in most records, active means well fitted cell-killing curve with a large enough effect; inconclusive means small, poorly fitted or top-dose-only effect, or effect the other way; inactive means flat fitted curve, though single readings scatter. The list shows a part of the results.

test: Cell viability qHTS assay in S16 Pmp22-F2sN cells; details: S16 Pmp22-F2sN Schwann cells viability, CellTiter-Glo, 24 h; series mostly up to 57.5 µM; activity change, negative = cytotoxicity: at the top concentration; further: nearly all actives have a fitted effect of over 65% in size
How it was run: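 Used to flag compounds lowering reporter output through toxicity, this quantitative HTS measures ATP-based CellTiter-Glo luminescence in S16 Pmp22-F2sN Schwann cells after 24 h compound exposure at 37C.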
On the % scale 0 is the no-effect control and ±100 the full control effect.

SMILES | activity change, negative = cytotoxicity
CCOc1ccc(CCNC(=O)c2cc3c(=O)[nH]c4ccc(C)cc4c3s2)cc1OCC | inactive: 6.97%
COc1ccc(-c2nc(SCC(=O)NCCc3ccc(OC)c(OC)c3)n[nH]2)cc1 | inactive: 0.048%
O=C(NC1CCCc2ccccc21)c1ccc2c(c1)sc1nc(-c3ccc(F)cc3)cn12 (stereo unspecified) | inactive: -1.66%
COc1cccc(N2CCN(C(=O)c3c(C)oc4ncnc(N5CCOCC5)c34)CC2)c1 | inactive: 1.07%
Cc1c(C(=O)N(C)C)sc2c1c(=O)n(-c1ccc(Cl)c(Cl)c1)c(=O)n2CC(=O)Nc1cccc(C(F)(F)F)c1 | inactive: 1.55%
CC(C)c1ccc(NC(=O)CN(C)S(=O)(=O)c2ccc3c(c2)c(=O)n(C)c(=O)n3C)cc1 | inactive: -11.5%
CCn1c(=O)n(CC)c2cc(N3CCCCC3)c(NC(=O)Nc3ccccc3Cl)cc21 | inactive: -5.41%
COc1cccc(Oc2nc3c(c(=O)n(Cc4ccccc4F)c(=O)n3C)n2C)c1 | inactive: -8.84%
CCOC(=O)Cc1ccc(NC(=O)NCc2ccc3c(c2)CCN3C(=O)CC)cc1 | inactive: 20.2%
O=C(CCS(=O)(=O)c1cc(Br)cc2c1N(C(=O)C1CC1)CC2)Nc1ccc(Br)cc1F | inactive: -1.43%
CCOC(=O)c1oc2c(c1C)-c1nn(Cc3ccc(Cl)cc3)cc1CC2 | inactive: -8.75%
Cc1noc(C)c1S(=O)(=O)N1CCC(C(=O)N2CCN(c3ccccc3)CC2)CC1 | inactive: 9.88%
O=C(CSc1nc2c([nH]c3ccccc32)c(=O)n1-c1ccc(F)cc1)N1CCCCC1 | inactive: 1.16%
CCc1ccc(OCC(=O)N(Cc2ccc(Cl)cc2)C2CCS(=O)(=O)C2)cc1 (stereo unspecified) | inactive: -2.07%
COc1ccccc1NC(=O)Cn1nnc(C(=O)NCc2ccc3c(c2)OCO3)c1N | inactive: 0.269%
CCC(C)NC(=O)Cn1c(=O)cc(-c2ccccc2)c2c(C)nn(C)c21 (stereo unspecified) | inactive: 3.33%
CCOc1ccc(C(CC(=O)O)N2Cc3ccccc3C2=O)cc1OC (stereo unspecified) | inactive: 3.63%
COc1ccc(C2c3c(oc4ccc(F)cc4c3=O)C(=O)N2Cc2ccc3c(c2)OCO3)cc1 (stereo unspecified) | inactive: -1.2%
Cc1ccc(N2CC(c3nc4ccccc4n3CCC3CCCCC3)CC2=O)cc1 (stereo unspecified) | inactive: -0.0304%
COc1cccc(N2CCN(S(=O)(=O)c3ccc4[nH]c5c(c4c3)CCCC5)CC2)c1 | inactive: -17%
O=C(Nc1ccccc1Br)C1CCCN(S(=O)(=O)c2cccc3nsnc23)C1 (stereo unspecified) | inactive: -19.4%
CCOC(=O)c1cccc(Nc2c3c(nc4ccccc24)CCC3)c1 | inactive: -29.2%
O=C1CC(c2ccccc2)Cc2[nH]c(=O)c(C(=O)Nc3cccc(F)c3)cc21 (stereo unspecified) | inactive: 0.0593%
O=C(NCCS(=O)(=O)N1CCN(c2ccccc2)CC1)C(c1ccccc1)c1ccccc1 | inactive: -0.661%

SMILES | activity change, negative = cytotoxicity
N#C/C(=C\c1ccccc1)c1nc(-c2cc3cc(Br)ccc3oc2=O)cs1 | inactive: 2.85%
Cc1cccc(N(C)C(=O)c2cc(S(=O)(=O)N3CCCC3)cn2C)c1 | inactive: -3.11%
CCc1ccc(CNCc2c(C(=O)O)n(Cc3cccc(F)c3)c3cc(OC)ccc23)cc1 | inactive: -15%
COC(=O)c1ccccc1NC(=O)NCCc1c(C)nn(C)c1C | inactive: -2.87%
CC1CCN(C(=O)CSc2nnc(-c3ccccc3Cl)o2)CC1 | inactive: 3.36%
COc1ccc(NC(=O)/C(C#N)=C/c2ccc(OCc3cc(=O)n4nc(C)sc4n3)cc2)cc1 | inactive: 20%
CCN(C(=O)Cn1nc(Cc2cccnc2)c2ccccc2c1=O)c1ccccc1F | inactive: 26.3%
O=C(NCCc1csc(-c2ccc(Cl)cc2)n1)c1cccs1 | inactive: -26.7%
CCc1ccccc1NC(=O)Cn1c(-c2nonc2N)nc2ccccc21 | inactive: 0.893%
COC(=O)c1c(NC(=O)CCCOc2ccc(C(C)(C)C)cc2)sc2c1CCC(C)C2 (stereo unspecified) | inactive: -16.3%
COc1ccc(NC(=O)CCNS(=O)(=O)c2cccc3nsnc23)cc1 | inactive: 0.514%
Cc1ccc2nc(-c3cc(NC(=O)c4ccc5c(c4)OCCO5)ccc3Cl)oc2c1 | inactive: -0.347%
Cc1cccc(NC(=O)C2CCN(c3nnc(-n4c(C)ccc4C)s3)CC2)c1C | inactive: -8.06%
COc1ccc(-c2nnc(C3CCN(C(=O)c4ccccc4F)CC3)o2)cc1 | inactive: -5.03%
Cc1ccc(S(=O)(=O)NCCc2cn3c(C)csc3n2)cc1 | inactive: 4.99%
COc1ccc(OCCn2cc(C(=O)C3CCCCC3)c3ccccc32)cc1 | inactive: 0.0651%
O=C(c1ccc2c(c1)CCN2S(=O)(=O)c1ccccc1)N1CCN(c2ccc(F)cc2)CC1 | inactive: 5.15%
COc1cccc(N2CCN(C(=O)c3cnn(C(C)(C)C)c3C3CCN(C(=O)OC(C)(C)C)CC3)CC2)c1 | inactive: 0.532%
CCc1cccc(NC(=O)Cn2c(=O)n(Cc3ccccc3)c(=O)c3c2c2cc(OC)ccc2n3C)c1 | inactive: 25.9%
O=C(NCc1ccc(Cl)cc1)C(=O)Nc1ccc(Br)cc1 | inactive: -0.94%
Cc1cc(C)c(Cn2c3ccccc3c3cnn(CC(=O)N4CCCCCC4)c(=O)c32)c(C)c1 | inactive: 2.67%
Cc1cccc(C)c1OCC(=O)Nc1nc(-c2ccc(Br)cc2)ns1 | inactive: 2.3%
Cn1cc(S(=O)(=O)c2ccccc2)c(=O)c2cc(F)c(N3CCN(c4ccccc4)CC3)cc21 | inactive: -7.14%
Cc1cccc(-n2c(-c3ccccc3)cn3c4c(=O)[nH]c(=O)n(C)c4nc23)c1 | inactive: 12.7%

SMILES | activity change, negative = cytotoxicity
Cc1ccc(-c2cc(C(F)(F)F)n3nc(C(=O)Nc4ccc(Cl)c(C(F)(F)F)c4)cc3n2)cc1 | inactive: 1.36%
O=S1(=O)c2ccccc2N(Cc2ccccc2)c2ccccc21 | inactive: -8.44%
CCN(CC)CCCNC(=O)C1CCN(S(=O)(=O)CC)CC1 | inactive: 1.09%
COC(=O)c1cc(C)nc2c1c(=O)nc(SCc1ccccc1F)n2C1CC1 | inactive: -2.27%
O=C(Cn1c(=O)n(-c2cccc(Cl)c2)c(=O)c2sc3ccccc3c21)N1CCCC1 | inactive: 4.48%
CCOc1ccc(C(=O)Nc2c(C(=O)Nc3ccccc3F)oc3ccccc23)cc1OCC | inactive: 10.1%
CCn1c(=O)c2cc(C(=O)NCCc3cc(OC)ccc3OC)sc2c2ccccc21 | inactive: 23.9%
CCCCN(CC)CCNC(=O)c1cc2c(=O)oc3ccc(C)cc3c2s1 | inactive: -5.11%
Cc1ccc(-n2c(C)nc3c(cnn3-c3ccccc3C)c2=O)cc1F | inactive: 20.9%
CCc1ccc2oc(-c3ccc(NC(=O)c4ccc(OC)c(Br)c4)cc3)nc2c1 | inactive: 2.72%
Cc1cccc(Cn2cc(C(=O)Nc3ccc(F)c(C(F)(F)F)c3)ccc2=O)c1 | inactive: -14.1%
O=C(NCc1cccc(F)c1)c1ccc(-n2cnc3cccnc32)cc1 | inactive: -5.93%
COc1ccccc1CNC(=O)CCC1N=C2c3ccccc3N=C(SCc3cccc(Cl)c3)N2C1=O (stereo unspecified) | inactive: -13.3%
COc1ccccc1CNC(=O)CCCc1nnc2n(CC(C)C)c(=O)c3sccc3n12 | inactive: 18.6%
CC(C)N(C(=O)CSc1nc2ccc(Cl)cc2[nH]1)c1ccccc1 | inactive: -7.82%
CCOc1ccc(OCC)c(NS(=O)(=O)c2cc(Br)cc3c2N(C(C)=O)C(C)C3)c1 (stereo unspecified) | inactive: -0.535%
COc1ccc(-c2cc3nc(-c4ccc(C)cc4)cc(C(F)(F)F)n3n2)cc1 | inactive: 3.15%
O=C(c1ccc(F)cc1)N1c2nc(-c3ccco3)nn2C2(CCCCC2)[C@@H]2CCCC[C@@H]21 | inactive: 1.4%
CCC(=O)Nc1nnc(SCc2cc(=O)c3cc(C)ccc3[nH]2)s1 | inactive: -24.6%
CCOc1cc(-c2nnc(SCC(=O)Nc3ccc(F)c(F)c3)nc2-c2ccc(OC)c(OCC)c2)ccc1OC | inactive: 18%
CC(=O)N1CCc2c(sc3c2c(=O)n(-c2ccccc2)c(=O)n3CC(=O)Nc2cccc(C)c2)C1 | inactive: 12.8%
CCOc1ccc(CNS(=O)(=O)c2c(C(=O)N3CCC(C)CC3)c(C)n(C)c2C)cc1OC | inactive: -3.04%
Cc1c(C(=O)OC2CCCC2)[nH]c2c1C(=O)CC(c1ccc(Cl)cc1)C2 (stereo unspecified) | inactive: -22%
O=C(CSc1nnc(-c2ccccc2)c(-c2ccccc2)n1)NC1CCCCC1 | inactive: 7.46%

SMILES | activity change, negative = cytotoxicity
Cc1ccc(N2CC(NC(=O)Cc3cccs3)CC2=O)cc1C (stereo unspecified) | inactive: 3.6%
CCOC(=O)N1CCc2c(sc(NCc3cccc(F)c3)c2C(=O)Nc2ccccc2OCC)C1 | inactive: -1.04%
Cc1nc(N2C(=O)c3oc4ccccc4c(=O)c3C2c2cccc(OCCC(C)C)c2)sc1C (stereo unspecified) | inactive: -9.26%
CCOc1ccc(/C=C(\C#N)c2nc3ccccc3c(=O)[nH]2)cc1OC | inactive: 7.73%
CCOc1ccccc1NC(=O)C1CCCN(S(=O)(=O)c2c(C)[nH]c(=O)[nH]c2=O)C1 (stereo unspecified) | inactive: 14.4%
COC(=O)c1nnn(CC(=O)NC(=O)Nc2cccc(C)c2C)c1C(=O)OC | inactive: 5.15%
CCc1nc2ccc(C(=O)N3CCN(c4ccccc4)CC3)cc2nc1CC | inactive: -15.9%
Cc1ccc(CNC(=O)c2cc3c(s2)-c2ccccc2SC3)cc1 | inactive: -18%
CCOC(=O)c1cc(-c2ccccc2)n(CC(=O)NC(C)c2ccccc2)c1C (stereo unspecified) | inactive: -0.759%
CCOC(=O)c1ccc(NC(=O)Nc2c[nH]c(=O)[nH]c2=O)cc1 | inactive: 3.07%
CC(C)CN(CCCNC(=O)Cn1ncc2c3ccccc3n(C)c2c1=O)CC(C)C | inactive: 3.74%
CCc1ccc(OC(C)C(=O)N2CCC(c3nc4ccccc4s3)CC2)cc1 (stereo unspecified) | inactive: -24.4%
Cc1cc(C)cc(NC(=O)CCS(=O)(=O)c2cc3c4c(c2)CCN4C(=O)CC3)c1 | inactive: -3.06%
CN(c1ncnc2onc(-c3cccc(Cl)c3)c12)C1CCCCC1 | inactive: -14%
CCc1ccc(-n2nc3cc(C)c(NC(=O)c4cccc5ccccc45)cc3n2)cc1 | inactive: 2.33%
COc1ccc(N2CC(NC(=O)COc3ccccc3)CC2=O)cc1OC (stereo unspecified) | inactive: 2.61%
Cn1c(=O)c2c(SCC(=O)NCc3ccco3)nc(-c3ccccc3)nc2n(C)c1=O | inactive: -14.3%
CC1CCn2c(nc3cc(C(=O)NCCc4ccc(Cl)cc4)ccc32)C1 (stereo unspecified) | inactive: 0.717%
Cc1ccc(-n2nc(CO)c(C(=O)NCc3ccccn3)n2)cc1C | inactive: 0.302%
Nc1nc(Nc2ccccc2F)sc1C(=O)c1ccc(Cl)cc1 | inactive: 1.45%
CCOC(=O)c1noc2ncn(CC(=O)Nc3ccc(C)c(F)c3)c(=O)c12 | inactive: 3.56%
Cc1cccc(NC(=O)CCS(=O)(=O)c2ccc3c(c2)n(C)c(=O)c(=O)n3C)c1C | inactive: 3.81%
Cc1c(C(=O)N(Cc2ccccc2F)C2CCS(=O)(=O)C2)oc2ccc(F)cc12 (stereo unspecified) | inactive: -6.16%
Cc1ccc(-n2c(=O)c3c(C)c(C(=O)N(C)C)sc3n(CC(=O)C(C)(C)C)c2=O)cc1C | inactive: -2.78%
